The whole screen tested about 360,000 compounds, of which about 7,500 (2.1%) were called active. This list was built around the results that the source calls inconclusive (neither active nor inactive); the mix of calls is not that of the screen. Calls come from the whole dose curve; as a rule, active = well fitted cell-killing curve with a large enough effect; inconclusive = small, poorly fitted or top-dose-only effect, or effect the other way, or another doubt; inactive = no such curve, though single readings can be large or run the other way. No potency is given beside an inconclusive call; the fits are too rough.
Assay: qHTS for induction of synthetic lethality in tumor cells producing 2HG: qHTS for the HT-1080-IDH1KD cell line;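 for activity, negative = toxicity: 0% = DMSO wells and -100% = cell-free medium wells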
Conditions: HT-1080 IDH1 knockdown viability, ATP luminescence, 48 h; activity, negative = toxicity: at 46.1 µM (top of the series) unless noted
In short: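 % activity derives from luminescence (CellTiter-Glo), normalised to DMSO and no-cell wells. HT-1080-IDH1KD cells, 750/well, had 48 h compound exposure at 37 °C.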
Potency is the fitted concentration of half-maximal effect; tags give direction and shape of the fitted curve.

Compound	Potency	activity, negative = toxicity
C=C1C(=O)OC2CC1C(O)CC(C)=CCCC(C)=CC(O)CC2C (stereo not drawn)	active: 7.31 µM	
Cc1cc(C)nc(NS(=O)(=O)c2ccc(NC(=O)CN3C(=O)S/C(=C\c4ccccc4)C3=O)cc2)n1	inconclusive [cytotoxic, single point]	
COCCNC(=O)C1(C)CCCN(CCC(=O)c2ccc(Br)cc2)C1 (stereo not drawn)	inconclusive [cytotoxic, single point]	
CCC(C(=O)N1CCN(S(=O)(=O)c2ccc(F)cc2)CC1)c1ccccc1 (stereo not drawn)		inactive: -3.8%
CC(C)N1CCc2c(sc(NC(=O)c3cc4cc([N+](=O)[O-])ccc4s3)c2C(N)=O)C1	inconclusive [cytotoxic, single point]	
O=C(c1ccc(Cl)cc1)N1N=C(c2ccccn2)CC1(O)C(F)(F)F (stereo not drawn)	inconclusive [cytotoxic, single point]	
Cc1cccc2sc(NNC(=O)c3ccc(S(=O)(=O)N4CCc5ccccc5C4)cc3)nc12	active: 16.4 µM	
CCOC(=O)Cc1csc(NC(=O)c2ccc(Cl)nc2)n1	inconclusive [cytotoxic, single point]	
Cc1ccc(-n2[nH]c(C)c(C=NC34CN5CN(CN(C5)C3)C4)c2=O)cc1C	inconclusive [cytotoxic, partial curve]	
COc1ccc(CCNC(=O)CSc2nc3[nH]ncc3c(=O)[nH]2)cc1OC		inactive: 0.482%
O=C(NCc1ccco1)C1Cc2c(-c3cccc(F)c3)ccnc2O1 (stereo not drawn)	active: 0.731 µM	
COc1ccccc1N1CCN(c2ncnc3sc(C)c(-c4ccccc4)c23)CC1	inconclusive [cytotoxic, partial curve]	
CCOc1ccc(N/C(SCc2cccc([N+](=O)[O-])c2)=C(/C#N)C(N)=O)cc1	inconclusive [cytotoxic, single point]	
C[C@H](CO)N1C[C@H](C)[C@H](CN(C)S(=O)(=O)c2ccc(Cl)cc2)OCc2ccccc2-c2c(n(C)c3ccccc23)C1=O	inconclusive [cytotoxic, single point]	
C=C1CC[C@@H]2[C@](C)(CCC[C@@]2(C)/C=C/[C@@H](O)C(C)(C)O)[C@H]1CC(=O)NCCS(=O)(=O)O		inactive: 18.1%
CCCNC(=O)c1cc(S(=O)(=O)N2CCc3ccccc32)ccc1F	inconclusive [cytotoxic, single point]	
CC(C)CN(CCNC(=O)CN1C(=O)CSc2ccc(S(=O)(=O)N3CCOCC3)cc21)CC(C)C		inactive: 11.6%
Cc1n[nH]c(C)c1S(=O)(=O)N(CC(=O)N1CCc2ccccc21)c1ccc(C(C)C)cc1	inconclusive [cytotoxic, single point]	
